Values joined by “and” are separate entries in the source; they are usually repeats but may differ in a detail not shown here. Identical values can stand only once. Hit rate of the full screen: of about 420,000 compounds, about 50,000 (12%) were called active. The shares of active, inactive and inconclusive entries below differ from those in the screen. The call rests on the fitted dose curve; in most records, active means well fitted inhibition curve with a large enough effect; inconclusive means small, poorly fitted or top-dose-only effect; inactive means flat fitted curve, though single readings scatter. Where the call is inconclusive, the potency comes from a doubtful curve fit.
experiment: qHTS for Inhibitors of human tyrosyl-DNA phosphodiesterase 1 (TDP1): qHTS in cells in presence of CPT; details: chicken DT40 Tdp1-/-;hTDP1 cells + 20 nM CPT, ATP luminescence, 48 h; activity change, negative = growth inhibition: at 46.2 µM (top of the series) unless noted; further: nearly all actives have a fitted effect of over 55% in size
Summary of the method: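 Chicken DT40 Tdp1-/- cells stably complemented with human TDP1 were seeded at 400 cells/well in medium containing 20 nM camptothecin, exposed to pin-transferred compounds, and grown at 37 °C for at least 48 hr. Viability was read as ATP luminescence.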
On the % scale 0 is the no-effect control and ±100 the full control effect; potency means the concentration at half of the fitted maximal effect; tags describe the fitted curve by direction and shape.

Row | Structure (SMILES) | Potency | activity change, negative = growth inhibition
1 | CN(C)S(=O)(=O)c1cccc(NC(=O)c2cccc(S(=O)(=O)N3CCCCC3)c2)c1 | inconclusive: 29.1 µM [inhibitor, single point] | –
2 | CCCCCC1CCC(C(=O)NNC(=S)NCC)CC1 (centres undefined) | active: 23.1 µM | –
3 | O=C(N/N=C/c1cccc(OC(=O)c2cccc(Br)c2)c1)c1ccncc1 | inconclusive: 1.46 µM [inhibitor, partial curve, poor fit] | –
4 | COc1ccc(CCNC(=O)c2cc(S(=O)(=O)N3CCc4ccccc43)ccc2F)cc1OC | active: 11.6 µM | –
5 | NC(=NCCc1ccccc1)NC(=O)c1cc(Cl)ccc1O | inconclusive: 20.6 µM [inhibitor, partial curve, poor fit] | –
6 | CCCCN(CCCC)CCNC(=O)c1cn(CC)c2ccc(S(=O)(=O)N3CCc4ccccc4C3)cc2c1=O | active: 20.6 µM | –
7 | COc1ccccc1-c1cc(-c2ccccc2)nc(=O)[nH]1 | inactive | –
8 | CC(=O)CSc1nnc(Cc2ccc3c(c2)OCO3)o1 | inactive | –
9 | O=C1[C@H]2[C@@H](/C=C/c3ccccc3)N3C(=O)CN(Cc4ccccn4)C(=O)[C@@]3(Cc3ccccc3)[C@H]2C(=O)N1c1ccccc1 | inactive | –
10 | Cc1oc(-c2cccc(Cl)c2)nc1CN1CCC(C(=O)NCCCN2CCN(c3ccccc3F)CC2)CC1 | active: 2.91 µM | –
11 | Nc1cc(S(=O)(=O)N2CCCCC2)ccc1Oc1ccc(Cl)cc1 | inconclusive: 11.6 µM [inhibitor, partial curve, poor fit] | –
12 | CCOc1ccccc1N1CCN(C(=O)c2cc3cc(OC)ccc3[nH]2)CC1 | inconclusive: 20.6 µM [inhibitor, single point] | –
13 | CCOC(=O)Cn1nc(-c2ccccc2)c2cnc3ccc(OCC)cc3c21 | active: 13 µM | –
14 | CCC1CN(C(=O)C2CCN(S(=O)(=O)c3c(C)noc3/C=C/c3ccccc3F)CC2)c2cc(Cl)ccc2O1 (centres undefined) | inactive | –
15 | COc1ccc(N(Cc2cccs2)C(=O)c2ccc(Br)o2)cc1 | active: 14.6 µM | –
16 | CCOC(=O)[C@]12CCC=C1N(Cc1cccc3ccccc13)C(=O)[C@H](CC(=O)NCCc1ccccc1OC)C2 | inconclusive: 25.9 µM [inhibitor, single point] | –
17 | Cc1ccc(NC(=S)Nc2cccc3ccccc23)cc1 | inactive | –
18 | C=CCn1c(C(CCCC)CC(O)COCC(C)C)n[nH]c1=S (centres undefined) | inactive | –
19 | COc1ccc(NC(=O)CSc2nncc(=O)n2N)cc1OC | inactive | –
20 | Cc1ccc(Cl)cc1NC(=O)c1ccccn1 | inactive | –
21 | Cc1ccc(NS(=O)(=O)c2ccc3c(c2)n(C)c(=O)n3C)cc1 | – | inconclusive: -31.9% [inhibitor]
22 | OC(COC(c1ccc(Cl)cc1)c1ccc(Cl)cc1)CN1CCN(c2ccccn2)CC1 (centres undefined) | inconclusive: 20.6 µM [inhibitor, single point] | –
23 | CCC(Oc1ccccc1)C(=O)Nc1ccc(S(=O)(=O)NCC2CCCO2)cc1 (centres undefined) | inconclusive: 16.4 µM [inhibitor, single point] | –
24 | COc1ccc(-n2cc(C(=O)c3cc(Cl)ccc3O)cc(C#N)c2=O)cc1 | inactive | –
25 | COc1ccccc1CNC(=O)C1CCN(S(=O)(=O)c2ccc3c(c2)C(C)(C)C(=O)N3C)CC1 | inconclusive: 29.1 µM [inhibitor, single point] | –

Row | Structure (SMILES) | Potency | activity change, negative = growth inhibition
26 | Cc1ccc2c(=O)cc(C(=O)Nc3ccc(S(=O)(=O)Nc4nc(C)cc(C)n4)cc3)oc2c1 | inactive | –
27 | O=C(Nc1ccccc1-c1nc2ccccc2s1)C1=COCCO1 | inconclusive: 23.1 µM [inhibitor, single point] | –
28 | Cc1ccc(S(=O)(=O)N2CCC(=O)N([C@H](COCc3ccc(Cl)cc3)Cc3ccccc3)CC2)cc1 | inconclusive: 29.1 µM [inhibitor, single point] | –
29 | CCOc1ccc(S(=O)(=O)N2CCC(C(=O)OCc3ccc(OC)cc3)CC2)cc1 | inactive | –
30 | Cc1cc(C)c2[nH]c(=O)c(C(c3nnnn3CC3CCCO3)N3CCCC(C)C3)cc2c1 (centres undefined) | active: 18.4 µM | –
31 | CCc1cc2c(=O)n(-c3ccccc3)cnc2s1 | – | inconclusive: -34.4% [inhibitor]
32 | O=C(Nc1cc(=O)[nH]c2nc(-c3ccccc3)nn12)c1ccc(Cl)cc1 | inactive | –
33 | CC(=O)Nc1cccc(-c2nc3ccccc3s2)c1 | inactive | –
34 | CCOC(=O)C1CCCN(C(=O)c2cnn3c(C(F)(F)F)cc(-c4ccccc4)nc23)C1 (centres undefined) | active: 18.4 µM | –
35 | COc1ccc(-c2nc3ccc(NC(=O)COC(C)=O)cc3c(=O)n2Cc2ccccc2)cc1COc1ccc(NC(C)=O)cc1 | inconclusive: 35.5 µM [inhibitor, single point] | –
36 | Cc1ccc(-n2[nH]c(C)c(C=Nc3ccc(S(=O)(=O)Nc4nccs4)cc3)c2=O)cc1C | active: 8.2 µM | –
37 | CCN(CC(=O)Nc1ccc(OC)cc1)C(=O)c1ccc(=O)n(Cc2ccccc2)n1 | inactive | –
38 | O=c1[nH]c(=S)[nH]c2c1C(c1ccc(Cl)c(Cl)c1)OC(CCc1ccccc1)C2 (centres undefined) | inconclusive: 29.1 µM [inhibitor, single point] | –
39 | c1ccc(COc2ncnc3c2ncn3CCCNCC(c2ccccc2)c2ccccc2)cc1 | active: 25.9 µM | –
40 | Cc1[nH]c2ccccc2c1/C=N/Nc1ccc([N+](=O)[O-])cc1 | inconclusive: 29.1 µM [inhibitor, single point] | –
41 | CCOC(=O)c1c(NC(=O)CSc2n[nH]c(CNc3ccccc3)n2)sc(C)c1C | – | inconclusive: -36.3% [inhibitor]
42 | c1ccc(-c2csc3ncnc(N4CCc5ccccc5C4)c23)cc1 | inconclusive: 29.1 µM [inhibitor, single point] | –
43 | O=C(C1CCN(c2ncnc3c2nc2n3CCCCC2)CC1)N1CCN(c2ccc(F)cc2)CC1 | inconclusive: 23.1 µM [inhibitor, single point] and inconclusive: 29.1 µM [inhibitor, partial curve, poor fit] | –
44 | OC(c1cccc(Cl)c1)c1nc(-c2cnc3ccccc3c2)cs1 (centres undefined) | active: 25.9 µM | –
45 | Cc1sc2ncn(CC(=O)NCCCC(=O)N3CCCCC3)c(=O)c2c1C | inconclusive: 7.31 µM [inhibitor, partial curve] | –
46 | O=C(NCC1CC1)c1ccc2nc(-c3ccoc3)c(-c3ccoc3)nc2c1 | inconclusive: 25.1 µM [inhibitor, single point] | –
47 | COc1cccc(C(=O)Nc2ccc(S(=O)(=O)Nc3cc(C)nc(C)n3)cc2)c1 | inactive | –
48 | COc1cccc(N(CC(=O)Nc2cccc(F)c2)S(C)(=O)=O)c1 | inactive | –
49 | COc1ccccc1NC(=O)c1c([N+](=O)[O-])cnn1C | inactive | –
50 | FC(F)(F)c1cnc(NNC(=S)Nc2ccccc2)c(Cl)c1 | inconclusive: 23.1 µM [inhibitor, single point] | –

Row | Structure (SMILES) | Potency | activity change, negative = growth inhibition
51 | CCNCCC(=O)N1c2ccccc2Sc2ccc(NC(=O)OCC)cc21 | inconclusive: 18.4 µM [inhibitor, single point] | –
52 | Cc1ccc(S(=O)(=O)N2CCN(S(=O)(=O)c3ccc(C)cc3)C2c2ccccc2)cc1 | active: 17.8 µM | –
53 | CCOc1cc(-c2nc(C)c(C(C)=O)n2O)ccc1OCC(=O)Nc1cccc(C)c1 | inactive | –
54 | N/C(=N\N=C\c1ccnc2ccccc12)SC1CC(=O)N(c2ccc(Br)cc2)C1=O (centres undefined) | inconclusive: 7.31 µM [inhibitor, partial curve] | –
55 | O=C(OCc1ccccc1)c1cnc(Cl)c(Cl)c1 | inactive | –
56 | COc1ccccc1-c1nc2ccccc2nc1-c1ccccc1 | active: 18.4 µM | –
57 | O=C(c1ccc(S(=O)(=O)c2ccccc2Cl)c([N+](=O)[O-])c1)N1CCCCCC1 | active: 20.6 µM | –
58 | CCc1ccc(NC(=O)Cn2c(=O)n(Cc3nc(-c4ccccc4)no3)c(=O)c3cc4c(cc32)OCO4)cc1 | inactive | –
59 | COc1ccc(S(=O)(=O)N2CCC(c3ccncc3)CC2)cc1OC | inactive | –
60 | O=C1CC(c2ccccc2F)c2cc3c(cc2N1)CCC3 (centres undefined) | active: 3.26 µM | –
61 | Cn1ccc2c(-c3ccc(C(C)(C)C)cc3)cc3c(c21)C1CCC3O1 (centres undefined) | inconclusive: 20.6 µM [inhibitor, single point] | –
62 | O=C(c1ccco1)n1nc(-c2ccc(Cl)cc2)nc1NCc1ccccc1 | active: 18.4 µM | –
63 | Cn1c(=O)c2c(nc(N3CCOCC3)n2CCSc2ncccn2)n(C)c1=O | active: 20.6 µM | –
64 | CCCC(=O)N1CC(=O)Nc2ccc(Cl)cc2C1c1ccccc1 (centres undefined) | inconclusive: 23.1 µM [inhibitor, single point] | –
65 | COc1ccccc1N1CCN(C(=O)c2ccc3c(=O)n(Cc4ccc5c(c4)OCO5)c(=O)[nH]c3c2)CC1 | active: 16.4 µM | –
66 | CCSC1=C(C#N)C(c2ccccc2Cl)CC(=O)N1 (centres undefined) | inconclusive: 29.1 µM [inhibitor, single point] | –
67 | COc1ccc(NC(=O)c2cc(S(=O)(=O)NCC3COc4ccccc4O3)ccc2F)cc1 (centres undefined) | inconclusive: 29.1 µM [inhibitor, single point] | –
68 | CCC(Sc1ncnc2sc3c(c12)CCCC3)C(=O)OC(C)C (centres undefined) | active: 18.4 µM | –
69 | CC/C=C\C[C@H]1C(=O)CC[C@@H]1CC(=O)O | inactive | –
70 | C=CCCN(C(CC(C)C)C(=O)OC)S(=O)(=O)c1ccccc1Br (centres undefined) | inconclusive: 25.9 µM [inhibitor, single point] | –
71 | CCCCc1nnc(NC(=O)CN2C(=O)NC3(CCCCC3)C2=O)s1 | inactive | –
72 | O=C(Nc1ccccc1)c1c(F)cccc1F | inactive | –
73 | O=C(Nc1ccc(Cl)cc1)c1ccc(-n2cncn2)c([N+](=O)[O-])c1 | inconclusive: 23.1 µM [inhibitor, single point] | –
74 | CCOc1ccc2c(c1)N(C(=O)CN1C(=O)CCC1=O)C(C)(C)C=C2C | inconclusive: 20.6 µM [inhibitor, single point] | –

Source: PubChem BioAssay AID686979 (National Center for Advancing Translational Sciences (NCATS), 2013)
